The term Ki denotes a measure of affinity in units of concentration, obtained from inhibition or displacement. Read a high Ki as lower affinity.

Data set [1] deals with Adriamycin (ADR)-induced nephropathy in Balb/c mice. In words: ADR nephropathy: serum cholesterol and triglycerides. In kind it is in vivo, mouse.
Data set [2] has as its target human cannabinoid 1 receptor (hCB1-R) (Homo sapiens, UniProt P21554). Put plainly: Potency for binding to the CB1R in vitro (Ki). The settings on record: human CB1 receptor binding.
Another data set relates to CYP. Put plainly: CYP Induction. It counts as in vitro ADME.
The test system of the next data set is T1, OSBPL7.
T1 construct: Plasmids expressing each as a full-length protein with a C-terminal FLAG tag were obtained; expressed in transfected cells; host or cells: HEK293
Put plainly: Competition with ^3H-Cpd K UV cross-linking to FLAG-tagged OSBPL7 in HEK293 cells (immunoprecipitation, autoradiography). In kind it is binding, human. As to conditions: unlabeled Cpd K at 50-fold excess; Cpd A, Cpd G 10 and 50 µM. The protocol:
Briefly, a plasmid expressing a candidate target of interest fused with a FLAG tag was transfected into HEK293 cells. After 24 h, tritiated compound K at a concentration capable of inducing ABCA1-mediated cholesterol efflux (1.0 μM) was added for 3 h, then the live cells were exposed to UV-light (ʎ = 336 nm) to query potential compound/target cross-linking in situ. Cell lysates were prepared, the expressed protein was then selectively immunoprecipitated using an anti-FLAG antibody coupled to sepharose beads, bound proteins were separated by SDS-PAGE, and two identical blots were prepared and probed by western blot and by autoradiography to detect protein expression and presence or absence of compound crosslinking, respectively. The flow chart of this screen is illustrated in Fig. 2. Figure 2d illustrates the ability of Cpd A and Cpd G to displace tritiated Cpd K from overexpressed and immunoprecipitated OSBPL7. Figure 3b illustrates the use of this assay to detect binding of tritiated Cpd K to overexpressed and immunoprecipitated variants of OSBPL7 containing point mutations in the predicted oxysterol binging pocket of OSBPL7. […]

The test system of the next data set is ABCA1 protein. Put plainly: ABCA1 western blot in podocyte whole-cell lysates. It counts as cell-based, human. The settings on record: Cpd G 10 µM, Cpd A 5 µM; podocytes. The protocol: Cell lines were purchased from ATCC and subcultured for no more than passage 15, except for human podocytes, which were originally from Dr Jochen Reiser. Conditionally immortalized human podocytes were cultured under permissive conditions at 33 °C, in RPMI medium (Corning) containing 10% FBS (GIBCO), 1% penicillin/streptomycin, 0.01 mg/ml recombinant human insulin, 0.0055 mg/ml human transferrin (substantially iron-free), and 0.005 μg/ml sodium selenite (ITS, Corning). To induce differentiation, podocytes were cultured at 37 °C for 14 days in RPMI medium containing 10% FBS (GIBCO) and 1% penicillin/streptomycin. Differentiated podocytes were starved in RPMI-0.2% FBS for 18 h and then treated with 1 μM, 5 μM, and 10 μM of compounds freshly prepared in DMSO for 18 h at 37 °C as indicated.
Lysates, or cell fractions were incubated in Laemmli buffer at 55 °C for 10 min under reducing conditions. A total of 30 μg of protein from cell lysates or one-third of the volume collected in cell fraction preparations was separated by SDS-PAGE in 4–20% gradient gels (Biorad) and proteins were then transferred to PVDF membranes. […] Signals were detected after incubation with Westernbright ECL HRP substrate (Advansta) and luminescence signals were captured with Azure C600 Gel Imaging workstation (Azure Biosystems Inc, USA) or X-ray films.
On the technique in general: Immunoblotting shows a protein as a band on a membrane.

Another data set is described as follows: GSH adduct. In kind it is in vitro ADME.

Chain of human cannabinoid 1 receptor (hCB1-R) (P21554 whole entry): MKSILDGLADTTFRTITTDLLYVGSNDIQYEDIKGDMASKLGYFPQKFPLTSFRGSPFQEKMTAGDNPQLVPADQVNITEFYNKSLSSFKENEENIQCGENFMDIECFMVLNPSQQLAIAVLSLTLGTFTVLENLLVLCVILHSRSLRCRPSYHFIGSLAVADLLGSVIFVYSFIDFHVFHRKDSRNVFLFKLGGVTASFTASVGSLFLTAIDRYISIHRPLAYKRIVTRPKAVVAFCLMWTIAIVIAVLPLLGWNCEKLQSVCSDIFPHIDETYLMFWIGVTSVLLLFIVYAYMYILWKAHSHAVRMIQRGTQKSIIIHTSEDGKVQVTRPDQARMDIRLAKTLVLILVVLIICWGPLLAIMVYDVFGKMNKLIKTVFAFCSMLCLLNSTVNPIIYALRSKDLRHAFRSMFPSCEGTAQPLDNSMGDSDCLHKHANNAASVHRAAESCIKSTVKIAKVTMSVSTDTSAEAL

With `O=C(N[C@@H]1CCCC[C@H]1O)c1cnc(OCC(F)(F)F)c(-c2ccc(Cl)c(Cl)c2)c1` [Cpd G], the “Animals with sporadically high cholesterol levels (>122 mg/dL)” value in data set [1] (plasma, 28 days of treatment, ADR-challenged) is recorded as “none”. In data set [1] (serum, after ADR challenge), the “Cholesterol (mg/dL), Median(IQR)” value is reported as 104(93-115) mg/dL; the “Cholesterol (mg/dL), Range” value lay in the range of 85 to 121 mg/dL; the “Triglycerides (mg/dL), Median(IQR)” value was 113(84-133) mg/dL; the “Triglycerides (mg/dL), Range” value was in the range of 68 to 140 mg/dL. This compound had a Ki in data set [2] of 1.32 µM. Moreover, in the data set with CYP, the “CYP Induction” value was “Negative”. The “Competition for ^3H-Cpd K binding to OSBPL7” value in the data set on OSBPL7 was “effective competitors”. For the same compound, the “ABCA1 protein levels in whole-cell lysates” value in the data set on ABCA1 protein is “significantly increased ABCA1 protein levels”. Besides, in “GSH adduct”, the GSH adduct result is “Negative”.

For the origin of these results see PMC8329197, “Compounds targeting OSBPL7 increase ABCA1-dependent cholesterol efflux preserving kidney function in two models of kidney disease” (Nature Communications, 2021).
